Test results: the supplement of paper PMC3334620
Whole data set: some 33,000 sequences, median “E-score (-0.5 to 0.5)” near -0.016, cut for the highest 2% near 0.32. Some of the results follow.

Molecular target: T1, Stp1 (UniProt B3LFK1)
T1 sequence: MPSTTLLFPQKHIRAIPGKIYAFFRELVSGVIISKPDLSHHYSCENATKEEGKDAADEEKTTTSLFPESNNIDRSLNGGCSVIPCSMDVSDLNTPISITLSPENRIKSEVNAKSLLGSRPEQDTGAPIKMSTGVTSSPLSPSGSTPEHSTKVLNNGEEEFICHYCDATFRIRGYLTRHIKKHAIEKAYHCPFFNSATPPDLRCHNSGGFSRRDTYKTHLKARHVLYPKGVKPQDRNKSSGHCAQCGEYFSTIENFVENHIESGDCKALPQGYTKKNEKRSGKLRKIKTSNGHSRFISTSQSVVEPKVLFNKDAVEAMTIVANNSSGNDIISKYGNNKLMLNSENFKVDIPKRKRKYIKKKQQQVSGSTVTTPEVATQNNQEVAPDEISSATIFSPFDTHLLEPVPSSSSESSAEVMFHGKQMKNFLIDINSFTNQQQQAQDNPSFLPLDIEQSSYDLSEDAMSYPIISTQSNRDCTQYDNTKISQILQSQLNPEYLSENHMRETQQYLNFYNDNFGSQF
Assay: PBM E-score (8-mer binding enrichment) (E-score (-0.5 to 0.5)); higher = stronger / more preferred TF binding; most listed sequences are background and not binding sites
Conditions: protein concentration: 200 nM; construct: GST-full length
In short: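 PURExpress in vitro transcription/translation supplied GST-tagged yeast transcription factors, either full-length or DNA-binding domain. Applied at about 100-200 nM to universal all-10-mer Agilent arrays double-stranded by primer extension, the bound protein was detected with fluorescent anti-GST. E-scores, modified Wilcoxon-Mann-Whitney statistics, were given by the Universal PBM Analysis Suite to ungapped eight-base words pooled with their reverse complements after masliner normalisation.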

| Sequence | PBM E-score |
| --- | --- |
| ATTTTAAG | 0.19 |
| ACAGGCTA | -0.135 |
| TGATTAAA | 0.145 |
| ACCGAGAT | -0.0374 |
| GCTAGACA | -0.0112 |
| CCTGCGAG | -0.0538 |
| GGATAGAA | 0.226 |
| CTCCTGAA | 0.0691 |
| AACCGAAG | -0.0463 |
| AGACGTAA | -0.0891 |
| AAGATACC | -0.0422 |
| CGGCTGTA | 0.193 |
| GCCCTGCA | 0.0324 |
| GGGCCTAA | -0.212 |
| CGAGTTCA | -0.0977 |
| AAGGATAC | -0.0924 |
| CCACGATA | 0.034 |
| CCTTTACA | 0.0991 |
| ACTTCGCC | 0.173 |
| ATGTCGTC | -0.282 |
| AAGGGTTC | -0.128 |
| ACTTATTG | -0.00914 |
| ATTATGTG | 0.134 |
| ACGACCGG | -0.263 |
| AAACTGAA | 0.0305 |

| Sequence | PBM E-score |
| --- | --- |
| AACAGCCA | 0.124 |
| CTCTAATA | 0.145 |
| ACCTCGTG | 0.00694 |
| GCACTGTA | 0.0576 |
| CTACATCA | -0.0897 |
| AGGTGATG | -0.25 |
| GAAAGGAA | 0.0927 |
| TAGTATCA | 0.284 |
| CCATGGAA | -0.0518 |
| GTGTGGAA | 0.032 |
| CTCTGTTA | -0.0478 |
| ATTGGAAC | 0.115 |
| AATGACCT | -0.256 |
| AGTTACGC | -0.0536 |
| GCCACGAC | -0.0685 |
| TAACTGTA | 0.0377 |
| AGTAGAGG | -0.288 |
| ATAGACGG | 0.175 |
| AGCGAGAG | -0.0779 |
| CTGACCAG | -0.136 |
| GAAACATC | -0.184 |
| GAATGCCC | 0.13 |
| ATGTGGAG | 0.0244 |
| CCAGATTC | -0.253 |
| CACGCCCG | -0.0702 |

| Sequence | PBM E-score |
| --- | --- |
| TCGCAGCA | 0.0185 |
| AAAGATAT | 0.133 |
| ACCTAATC | 0.0444 |
| CATAAGGC | 0.344 |
| GGAAGCAA | -0.0555 |
| GACACGGC | 0.479 |
| ATCATTTA | 0.13 |
| ATTGCGCG | 0.32 |
| AGGTGCTG | -0.106 |
| AAAATTAG | 0.0472 |
| AACGAGAC | -0.0773 |
| CATACAAA | 0.222 |
| CACTCGGG | -0.174 |
| CCCCAGCG | -0.103 |
| TACCCCAA | -0.0592 |
| AAACCCTG | -0.0886 |
| CTCACGTA | -0.134 |
| ACATACAA | 0.148 |
| GACCTGCA | -0.235 |
| AAGTTTAA | 0.0956 |
| CGAACGTC | -0.0853 |
| AAAGGGTT | -0.177 |
| AATACAGT | 0.0336 |
| CTCCCAAG | -0.204 |
| GTCCTTCA | -0.228 |

| Sequence | PBM E-score |
| --- | --- |
| ATGCCTGA | -0.108 |
| ATTAGCCC | -0.0336 |
| GTGATACA | 0.0512 |
| TCGCATAA | 0.00879 |
| CATCCGTC | -0.055 |
| CGACAATA | 0.197 |
| AGATTGCC | 0.0901 |
| CAAATCCA | 0.0898 |
| CGCCACCG | 0.045 |
| AGTGTGAG | -0.0833 |
| CTGTACGA | 0.00025 |
| AAACTCTC | 0.0198 |
| CGAACCCA | -0.133 |
| CATGGTTA | 0.105 |
| AAGGACTT | -0.285 |
| AGCCTCAT | 0.0519 |
| ATCTCATC | -0.0678 |
| AGAGCGGA | 0.026 |
| AATCACCT | 0.0461 |
| AAGGGTCT | -0.255 |
| CTTGGATA | 0.0427 |
| ACCAGTAG | 0.0159 |
| ATTGGCGA | 0.041 |
| GTTTAGGA | -0.255 |
| ACCCTCTC | -0.32 |

| Sequence | PBM E-score |
| --- | --- |
| CACCATCG | -0.146 |
| GACTGTAC | -0.105 |
| CTCGCAAA | -0.169 |
| GTCCCTAA | -0.0973 |
| GCACAAAA | 0.293 |
| ACAATGCC | 0.2 |
| ATAAAGGG | 0.0416 |
| GCCTTGCA | 0.33 |
| AGCATCTC | -0.18 |
| CCTCTAAA | -0.143 |
| AGGACGTC | -0.054 |
| AGCAGAGC | -0.0431 |
| CCTGATCA | -0.219 |
| CGTCATCC | -0.11 |
| AAAGGATC | -0.00085 |
| AACGATAA | -0.184 |
| CATTACGA | 0.0209 |
| ATAACCCG | -0.281 |
| CCGATTCG | 0.205 |
| ACGGTCAA | 0.0586 |
| CCTGGGAA | -0.108 |
| ACGGACTG | -0.0189 |
| CGCCTGCA | -0.0325 |
| CGAACTAA | 0.0581 |
| AAAGTTAC | 0.0425 |

| Sequence | PBM E-score |
| --- | --- |
| AGGGGCAT | -0.094 |
| CGGACCAC | -0.00311 |
| CATTTGTA | 0.159 |
| AGACTGAG | -0.0241 |
| GGTATTAA | 0.139 |
| CGACCATA | -0.108 |
| ATACGTCG | -0.127 |
| AGCCCGCT | -0.285 |
| TACAAATA | 0.125 |
| AAAGACAT | -0.0383 |
| GCGATAAC | 0.0294 |
| CATGTGAG | -0.141 |
| GGAAATCC | -0.0189 |
| GACGACGA | -0.0515 |
| AAAAACCA | 0.165 |
| CAGTTAAA | 0.107 |
| AGCCCTCG | -0.217 |
| TTCTTAAA | -0.125 |
| AACAGATG | -0.0496 |
| CAGAAGGA | -0.116 |
| GCGCGACC | 0.122 |
| GTCCATGA | -0.243 |
| AACCTAAG | -0.0196 |
| CCGTATGC | 0.331 |
| CGCGAGAA | -0.128 |

| Sequence | PBM E-score |
| --- | --- |
| CAGGAAAA | 0.136 |
| CACTGTCA | -0.0262 |
| CTCGCCTA | 0.102 |
| AACTAGGG | -0.198 |
| ACAAAAAA | 0.207 |
| CCCGCAAA | 0.108 |
| AAACAAAA | 0.108 |
| TACCTAGA | -0.22 |
| CAGAAGCC | 0.0659 |
| TATCGCAA | -0.0107 |
| GAGTGAAC | -0.0633 |
| CGCCGCGC | 0.487 |
| AGGGACGG | 0.0564 |
| AATGTGTA | 0.0587 |
| GGAGACAC | -0.163 |
| CACTATAC | 0.0177 |
| ATCGTAAT | 0.0988 |
| AGCTAATG | -0.215 |
| CCATTCAA | 0.172 |
| CGAGACAA | -0.0952 |
| ATACCTGC | -0.186 |
| CGCTACAC | 0.14 |
